Reference: the supplement of paper PMC3334620
Over roughly 33,000 sequences, “E-score (-0.5 to 0.5)” has its median near -0.021; the highest 2% begin near 0.32. Some of the results follow.

These sequences were tested against T1, Zap1 (UniProt P47043) (assay: PBM E-score (8-mer binding enrichment) (E-score (-0.5 to 0.5)); higher = stronger / more preferred TF binding; most listed sequences are background and not binding sites). Conditions: protein concentration: 200 nM; construct: GST-full length.
T1 sequence: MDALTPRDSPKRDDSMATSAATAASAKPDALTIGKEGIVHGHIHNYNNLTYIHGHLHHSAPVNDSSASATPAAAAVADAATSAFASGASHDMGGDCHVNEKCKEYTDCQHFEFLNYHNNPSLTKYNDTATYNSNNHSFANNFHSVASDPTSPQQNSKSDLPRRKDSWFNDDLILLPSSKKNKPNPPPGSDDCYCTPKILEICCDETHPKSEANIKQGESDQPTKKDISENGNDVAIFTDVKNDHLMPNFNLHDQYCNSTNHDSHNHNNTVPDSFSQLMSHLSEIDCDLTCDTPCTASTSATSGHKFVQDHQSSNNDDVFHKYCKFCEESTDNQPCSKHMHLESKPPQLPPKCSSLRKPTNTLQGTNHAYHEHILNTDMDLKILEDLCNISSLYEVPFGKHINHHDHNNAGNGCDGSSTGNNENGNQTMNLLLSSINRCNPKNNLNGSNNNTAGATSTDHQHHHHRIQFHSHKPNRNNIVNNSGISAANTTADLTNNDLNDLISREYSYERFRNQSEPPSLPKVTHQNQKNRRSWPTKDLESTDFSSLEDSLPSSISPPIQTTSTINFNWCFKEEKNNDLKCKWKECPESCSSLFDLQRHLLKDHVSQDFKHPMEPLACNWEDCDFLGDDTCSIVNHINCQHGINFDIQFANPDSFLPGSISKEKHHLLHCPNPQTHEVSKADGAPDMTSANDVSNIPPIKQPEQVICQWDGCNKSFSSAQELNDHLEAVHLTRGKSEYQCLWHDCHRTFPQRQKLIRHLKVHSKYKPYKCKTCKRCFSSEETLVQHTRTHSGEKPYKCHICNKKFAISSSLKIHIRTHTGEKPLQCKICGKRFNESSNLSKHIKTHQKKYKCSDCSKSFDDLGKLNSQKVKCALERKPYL
Protocol: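 Universal 'all 10-mer' protein binding microarrays (Agilent AMADID 015681) probed with GST-tagged S. cerevisiae TFs (full-length or DBD) made by in vitro transcription/translation (PURExpress), about 100-200 nM. Bound TF was detected with fluorescent anti-GST. Each ungapped 8-mer (which stands for itself and its reverse complement) is scored by the PBM enrichment score (E-score), a modified Wilcoxon-Mann-Whitney statistic from -0.5 to +0.5, computed with the Universal PBM Analysis Suite. Scale: above 0.35 generally sequence-specific binding.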

Sequence	PBM E-score
ATGCGGAG	-0.206
ACAACATG	0.165
AGTGACCA	0.247
GTGAACAC	-0.134
ATATATTA	0.195
GGCGCGAA	-0.0784
AGTAAGTG	-0.186
TCTTAGCA	-0.138
CGCGCGAC	0.0813
ACACGCAC	-0.0916
TCCGAACA	0.107
AAAGGGGA	-0.127
ACACTGTG	-0.0575
CAGAAGGG	0.00395
CCGCCAGA	0.0525
ATCCGCCC	-0.0928
GACACACA	0.028
ACGCCACG	-0.166
CCCATGCC	-0.0491
ACGGTCAC	0.218
CACGCAAC	0.189
AACACCTA	0.0163
CAGCAGCC	-0.128
CGTACCAC	0.0803
GCTACCCC	0.173

Sequence	PBM E-score
CCCACGAA	0.142
CTTAGGAC	-0.136
TACTAGCA	0.0424
AGTGTTTG	0.0503
TCCAGTAA	-0.0676
AGCTACAC	0.0323
CTTCTCGC	-0.203
CGGCTGAC	-0.193
GATACAGA	0.00203
CGGAGCCG	-0.0517
ACGAATCG	-0.171
CGGTTGCA	-0.0132
AGCGAACG	-0.299
CGTTTCTA	-0.012
ATTTCGCC	0.0493
GATACCTA	0.2
ATCATGAG	0.223
CATGCCAG	0.029
CGCTTAGA	-0.197
GTTCTCTA	-0.0503
GAAGGTGC	0.0253
AAACCCTT	0.272
CATCGCCA	-0.129
GATATCTA	0.108
ACGATGTC	-0.253

Sequence	PBM E-score
AGCGTTAT	-0.0138
CCAAGATA	-0.0163
AACTGGCC	-0.126
TCGATCGA	-0.0303
ACATTTAG	-0.16
AATCCTGG	-0.12
GATAGGTA	0.236
GCTCGCGA	0.147
CGCCGTGC	-0.0953
GTCACATA	0.0519
AACCGATC	-0.0219
CTCCGGCC	-0.295
CACACACC	-0.00084
CATCTCAC	-0.0113
CTCTCTCA	-0.0745
ACATCGTG	-0.128
AAGGATTG	0.0414
AGCACCAA	-0.0512
AAGTTTGT	0.109
CCATCCGC	0.00042
GCCTTACA	-0.141
CGGATCAC	0.0116
TATACGGA	0.0543
CCCTTTAA	0.286
AGACAGCC	-0.193

Sequence	PBM E-score
CCACCGTC	-0.24
TATGCTAA	0.172
AAGTTCTC	-0.103
AGTAAGCG	-0.0345
AAGTACCG	0.134
CACGCCTG	-0.265
CTGAACGA	0.0438
ATGCCGTA	0.0795
CGCATTGC	-0.121
ATCGAAGA	0.0214
GCCCCCAC	-0.222
CTCCTCTC	-0.249
TTCCACAA	0.101
TACAGCCA	-0.0777
CGTAATAA	0.0644
ACGAGGAC	-0.0791
CGCACTAA	-0.0584
CGTATCGC	-0.0418
CCTCAAGG	0.262
TGGCGTAA	-0.00392
AGGCGTGA	-0.156
CAAGGCAG	-0.162
AAAGAGGC	-0.135
ATGCAGGC	-0.229
CGATCCAC	0.00013

Sequence	PBM E-score
ATTCCACC	0.0323
AAGGGAAT	-0.127
ACTGACAC	-0.0765
GAGCCGAA	0.0882
GATAAGCC	-0.248
CCGCTCCA	-0.179
ACCCACCG	0.233
GTAATCAC	0.123
AGCGCACA	-0.114
CCGATCAG	-0.169
TACCCAGA	0.265
CACGCGTG	0.185
ATCGGGAA	-0.0546
CGTAGTTA	0.177
AACCGTAC	0.163
CCCCGTTC	-0.141
ACGTTAAT	0.115
CACCGAAC	0.0464
ATTCCTGG	-0.0883
GCGGCCAA	-0.00658
GAAGGGGA	-0.0649
ATTACTAG	-0.024
ACATGGGA	-0.123
GGCTTGTA	-0.0979
CCCGTAAA	0.118

Sequence	PBM E-score
CATATTAG	0.112
AGGCTCCA	-0.262
GTATGTAA	0.157
GACCGGTC	-0.118
GACCTTCC	0.0371
ACACGGAC	-0.183
CACAATTA	0.00978
CTCAATCC	0.0375
GGCGACTA	-0.221
TAGCCTCA	-0.0242
ACGCCAGC	-0.19
ATTTTACA	0.0383
CTCCCCTA	-0.209
CGCCGCAG	-0.0452
CGCTTGCA	-0.0367
ATGGGCCC	-0.124
CAACGGAC	-0.172
AGGGCGTC	-0.131
CTTCGTGC	-0.0559
TCCCGACA	-0.137
AATAAGAA	0.208
AGACTTCA	-0.0713
GTCCTCTA	-0.0992
AAAGAATA	0.0369
AATTGGTA	0.239

Sequence	PBM E-score
CCATTAGC	0.0188
CGATTCAG	-0.0831
GCTGTCTA	-0.195
AAGAGTCT	-0.23
CAAGGTCG	0.263
CGAGTTAA	0.114
CGGGCCTC	-0.148
CACTGAAG	0.0529
AAAACACC	0.202
ACGACAAA	0.213
ACGTAGCG	-0.259
CTTCAGCC	-0.0899
TACCACAA	0.359
AGCAGGCA	-0.336
AGTCGATC	-0.187
TCCTAACA	0.175
AAACGGCT	-0.359
AAGTGAAG	-0.133
ATGGAGTG	-0.179
ACTATCAT	-0.0255
AGTTCACA	0.0502
AGGTTAGA	0.185
